The other results are listed elsewhere or left out.
Tests used:
HSkMC = human skeletal muscle cells; assay: cytotoxicity call (relative viability < 0.9); conditions: 10 µM
HepG2 = assay: cytotoxicity call (relative viability < 0.9); conditions: 10 µM
S. aureus RN4220 = assay: growth inhibition call (relative growth <= 0.2); conditions: 50 µM

Row | SMILES | cytotoxicity call (HSkMC) | cytotoxicity call (HepG2) | growth inhibition call (S. aureus RN4220)
1 | COc1ccc2c3c([nH]c2c1)[C@H](CO)N(C[C@]13CCN(CC1)Cc1ccccc1)S(=O)(=O)c1cn(cn1)C | inactive | inactive | inactive
2 | COc1ccc(-c2ccc3n(c2=O)C[C@@H]2[C@@H](CO)[C@H](C(=O)NCC4CC4)[C@H]3N2S(C)(=O)=O)cc1 | inactive | inactive | inactive
3 | C[C@@H]1CN([C@H](C)CO)C(=O)c2cc(/C=C/c3ccccc3)cnc2O[C@@H]1CN(C)S(=O)(=O)c1cn(C)cn1 | inactive | inactive | inactive
4 | C#CC1(O)CCC2C3CCc4cc(OC)ccc4C3CCC21C (stereo not given) | inactive | active | inactive
5 | C[C@H](CO)N1C[C@H](C)[C@H](CN(C)C(=O)Nc2ccc3c(c2)OCO3)Oc2ccc(NS(C)(=O)=O)cc2CC1=O | inactive | inactive | inactive
6 | CCc1ccccc1C(=O)N1CCC[C@@H](Cn2cc(C(C)(C)N)nn2)C1 | inactive | inactive | inactive
7 | C[C@@H]1CN([C@H](C)CO)C(=O)Cc2cc(NC(=O)Nc3ccc(C(F)(F)F)cc3)ccc2O[C@@H]1CN(C)Cc1ccc(Cl)c(Cl)c1 | active | active | inactive
8 | C[C@@H]1CN([C@@H](C)CO)C(=O)c2cc(NC(=O)c3ccncc3)ccc2O[C@@H](C)CCCCO[C@@H]1CN(C)C(=O)Nc1cccc2ccccc12 | inactive | inactive | inactive
9 | C#CCN(C)CCCOc1ccc(Cl)cc1Cl.Cl | inactive | inactive | inactive
10 | CCn1c(=O)c(-c2cc(NC(=O)Nc3ccccc3)c(F)cc2Br)cc2cnc(NC)cc21 | inactive | active | inactive
11 | C=C(C)[C@]1(O)OC(=O)C=C1OC | inactive | inactive | inactive
12 | C[C@@H]1CN([C@H](C)CO)C(=O)c2cc(NS(=O)(=O)c3ccc(Cl)cc3)ccc2O[C@@H](C)CCCCO[C@@H]1CN(C)CC1CCCCC1 | inactive | active | inactive
13 | C[C@H](CO)N1C[C@H](C)[C@H](CN(C)C(=O)Nc2ccc(C(F)(F)F)cc2)Oc2ccc(NC(=O)Nc3ccc(F)cc3)cc2CC1=O | inactive | inactive | inactive
14 | COc1ccc(CN(C)C[C@@H]2OCCCC[C@H](C)Oc3ccc(NS(=O)(=O)c4c(C)noc4C)cc3C(=O)N([C@@H](C)CO)C[C@@H]2C)cc1 | inactive | inactive | inactive
15 | C[C@@H]1CCCCO[C@H](CN(C)S(=O)(=O)c2cn(C)cn2)[C@@H](C)CN([C@H](C)CO)C(=O)c2cc(NS(C)(=O)=O)ccc2O1 | inactive | inactive | inactive
16 | C[C@@H]1CN([C@@H](C)CO)C(=O)c2cc(NS(=O)(=O)c3ccc(Cl)cc3)ccc2O[C@@H](C)CCCCO[C@@H]1CN(C)S(=O)(=O)c1ccc(Cl)cc1 | inactive | active | inactive
17 | C[C@@H]1CN([C@@H](C)CO)C(=O)c2cccc(NC(=O)Nc3ccc(C(F)(F)F)cc3)c2O[C@@H]1CN(C)Cc1ccc(-c2ccccc2)cc1 | inactive | inactive | inactive
18 | Cc1noc(C)c1NC(=O)Nc1ccc2c(c1)CC(=O)N([C@@H](C)CO)C[C@@H](C)[C@@H](CN(C)S(=O)(=O)c1c(C)noc1C)O2 | inactive | inactive | inactive
19 | Cc1ccc(S(=O)(=O)Nc2ccc3c(c2)C(=O)N([C@@H](C)CO)C[C@@H](C)[C@H](CN(C)C(=O)CCC(F)(F)F)OCCCC[C@H](C)O3)cc1 | inactive | inactive | inactive
20 | COCCNC(=O)C[C@@H]1CC[C@H]2[C@@H](COC[C@H](O)CN2C(=O)Nc2ccc3c(c2)OCO3)O1 | inactive | inactive | inactive
21 | C[C@@H]1CCCCO[C@@H](CN(C)C(=O)c2ccccc2)[C@@H](C)CN([C@H](C)CO)C(=O)c2cc(NC(=O)Cc3ccccc3)ccc2O1 | inactive | inactive | inactive
22 | CC(C)NC(=O)N(C)C[C@H]1OCc2cn(nn2)CCCC(=O)N([C@@H](C)CO)C[C@H]1C | inactive | inactive | inactive
23 | C[C@@H]1CCCCO[C@@H](CN(C)C(=O)Nc2ccc3c(c2)OCO3)[C@H](C)CN([C@H](C)CO)C(=O)c2cc(NC(=O)CCC(F)(F)F)ccc2O1 | inactive | inactive | inactive
24 | C[C@H]1CN([C@@H](C)CO)C(=O)c2cccc(NC(=O)c3cnccn3)c2O[C@H]1CN(C)Cc1ccc(C(=O)O)cc1 | inactive | inactive | inactive
25 | C[C@@H]1CCCCO[C@H](CN(C)C(=O)Nc2ccccc2)[C@@H](C)CN([C@@H](C)CO)C(=O)c2cc(NS(=O)(=O)c3ccc(Cl)cc3)ccc2O1 | inactive | active | inactive

Reference: the antibiotic and cytotoxicity screens of Wong et al. (2023)
